Results from the supplement of paper PMC9262897, “Low-cost anti-mycobacterial drug discovery using engineered E. coli” (Nature Communications, 2022).
Further values from the same series stand in other lists.

Legend:
E. coli TESEC Mtb Alr = test: growth (OD600 after 10 h, mean); higher = more growth
Procedure: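 TESEC Mtb Alr E. coli grown in a two-dimensional dilution series of drug (µM) and arabinose (12 to 1e8 nM). Growth is read as OD600 after 10 h; values are means of 3 biological replicates.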

[1] = test system: E. coli TESEC strain (Mtb target enzyme); test: growth (OD600 after 10 h); higher = more growth
Procedure: (§1)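 Chemical-genetic validation profiles: TESEC strains (Mtb Asd or DapB, arabinose-inducible) or the wild-type control grown in a two-dimensional dilution series of drug (µM) and arabinose. Growth is read as OD600 after 10 h in triplicate.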

[2] = test system: E. coli wild-type control; test: growth (OD600 after 10 h); higher = more growth
Procedure: as §1

CCOC(=O)[C@H](CCc1ccccc1)N[C@H]1CCc2ccccc2N(CC(=O)O)C1=O [Benazepril]
growth, E. coli TESEC Mtb Alr
Details	drug 250 µM	drug 500 µM	drug 1000 µM	drug 2000 µM
arabinose 12 nM	0.198	0.118	0.112	0.111
arabinose 24 nM	0.19	0.111	0.111	0.108
arabinose 48 nM	0.189	0.111	0.111	0.111
arabinose 95 nM	0.187	0.114	0.11	0.11
arabinose 191 nM	0.186	0.11	0.11	0.114
arabinose 381 nM	0.188	0.103	0.112	0.109
arabinose 763 nM	0.185	0.102	0.106	0.115
arabinose 1526 nM	–	0.102	0.104	0.108
arabinose 3052 nM	–	0.0997	0.105	0.105
arabinose 6104 nM	–	0.101	0.102	0.106
arabinose 12207 nM	–	0.102	0.103	0.109
arabinose 24414 nM	0.19	0.106	0.0989	0.104
arabinose 48828 nM	0.214	0.108	0.102	0.107
arabinose 97656 nM	0.234	0.123	0.113	0.115
arabinose 195312 nM	0.242	0.17	0.13	0.13
arabinose 390625 nM	0.234	0.189	0.164	0.156
arabinose 781250 nM	0.238	0.207	0.196	0.195
arabinose 1562500 nM	0.245	0.237	0.223	0.219
arabinose 3125000 nM	0.254	0.246	0.248	0.24
arabinose 6250000 nM	0.267	0.262	0.256	0.26
arabinose 12500000 nM	0.254	0.252	0.252	0.258
arabinose 25000000 nM	0.241	0.236	0.242	0.255
arabinose 50000000 nM	0.236	0.235	0.234	0.243
arabinose 100000000 nM	0.234	0.226	0.227	0.238

CN(Cc1cc(Br)cc(Br)c1N)C1CCCCC1 [Bromhexine] (TESEC target enzyme: Mtb Asd)
growth
Details	drug 1.7 µM	drug 3.9 µM	drug 8.8 µM	drug 19.8 µM	drug 44.4 µM	drug 100 µM
[1], arabinose 15560 nM	0.134	0.144	0.144	0.14	0.136	0.119
[1], arabinose 28008 nM	0.134	0.131	0.123	0.162	0.122	0.12
[1], arabinose 50414 nM	0.151	0.164	0.16	0.141	0.119	0.124
[1], arabinose 90744 nM	0.183	0.181	0.157	0.157	0.132	0.136
[1], arabinose 163340 nM	0.18	0.192	0.171	0.179	0.125	0.134
[1], arabinose 294012 nM	0.213	0.238	0.193	0.231	0.168	0.16
[1], arabinose 529221 nM	0.29	0.283	0.262	0.286	0.235	0.244
[1], arabinose 952599 nM	0.331	0.34	0.308	0.321	0.28	0.317
[1], arabinose 1714678 nM	0.35	0.332	0.298	0.341	0.305	0.326
[1], arabinose 3086420 nM	0.356	0.319	0.299	0.337	0.31	0.327
[1], arabinose 5555556 nM	0.298	0.323	0.333	0.331	0.322	0.311
[1], arabinose 10000000 nM	0.317	0.323	0.287	0.326	0.309	0.314
[2], arabinose 15560 nM	–	–	–	–	0.147	0.173
[2], arabinose 28008 nM	–	–	–	–	0.141	0.148
[2], arabinose 50414 nM	–	–	–	–	0.159	0.163
[2], arabinose 90744 nM	–	–	–	–	0.156	0.161
[2], arabinose 163340 nM	–	–	–	–	0.17	0.165
[2], arabinose 294012 nM	–	–	–	–	0.185	0.198
[2], arabinose 529221 nM	–	–	–	–	0.201	0.211
[2], arabinose 952599 nM	–	–	–	–	–	0.2
[2], arabinose 1714678 nM	–	–	–	–	–	0.215
[2], arabinose 3086420 nM	–	–	–	–	–	0.278
[2], arabinose 5555556 nM	–	–	–	–	–	0.222
[2], arabinose 10000000 nM	–	–	–	–	0.213	0.257

CC/C(=C(/CC)c1ccc(O)cc1)c1ccc(O)cc1 [Diethylstilbestrol] (TESEC target enzyme: Mtb Asd)
growth
Details	drug 3.5 µM	drug 7.8 µM	drug 17.6 µM	drug 39.5 µM	drug 88.9 µM	drug 200 µM
[1], arabinose 15560 nM	0.169	0.0885	0.107	0.0526	0.0483	0.0579
[1], arabinose 28008 nM	0.182	0.108	0.0596	0.0727	0.0757	0.0675
[1], arabinose 50414 nM	0.168	0.119	0.0598	0.0487	0.079	0.0583
[1], arabinose 90744 nM	0.19	0.115	0.0706	0.0471	0.0596	0.0717
[1], arabinose 163340 nM	0.19	0.151	0.0771	0.106	0.0785	0.0511
[1], arabinose 294012 nM	0.206	0.171	0.127	0.0463	0.0716	0.0542
[1], arabinose 529221 nM	0.201	0.149	0.156	0.0571	0.0743	0.0619
[1], arabinose 952599 nM	0.221	0.202	0.11	0.083	0.0474	0.0584
[1], arabinose 1714678 nM	0.196	0.193	0.0842	0.0503	0.049	0.0483
[1], arabinose 3086420 nM	0.204	0.184	0.0877	0.105	0.081	0.0783
[1], arabinose 5555556 nM	0.198	0.186	0.0844	0.0563	0.0535	0.0772
[1], arabinose 10000000 nM	0.169	0.162	0.109	0.0863	0.0659	0.0545
[2], arabinose 15560 nM	–	–	–	–	0.0914	0.0668
[2], arabinose 28008 nM	–	–	–	–	0.0574	0.0592
[2], arabinose 50414 nM	–	–	–	–	0.0853	0.088
[2], arabinose 90744 nM	–	–	–	–	0.09	0.0748
[2], arabinose 163340 nM	–	–	–	–	0.104	0.053
[2], arabinose 294012 nM	–	–	–	–	0.0493	0.103
[2], arabinose 529221 nM	–	–	–	–	0.104	0.104
[2], arabinose 952599 nM	–	–	–	–	–	0.102
[2], arabinose 1714678 nM	–	–	–	–	–	0.0773
[2], arabinose 3086420 nM	–	–	–	–	–	0.0894
[2], arabinose 5555556 nM	–	–	–	–	–	0.0665
[2], arabinose 10000000 nM	–	–	–	–	0.0798	0.084

Nc1nc2ccc(OC(F)(F)F)cc2s1 [Riluzole] (TESEC target enzyme: Mtb Asd)
growth
Details	drug 8.7 µM	drug 19.5 µM	drug 43.9 µM	drug 98.8 µM	drug 222.2 µM	drug 500 µM
[1], arabinose 15560 nM	0.158	0.176	0.157	0.153	0.173	0.172
[1], arabinose 28008 nM	0.138	0.299	0.135	0.147	0.174	0.146
[1], arabinose 50414 nM	0.126	0.153	0.151	0.148	0.178	0.132
[1], arabinose 90744 nM	0.163	0.148	0.121	0.127	0.189	0.169
[1], arabinose 163340 nM	0.18	0.162	0.145	0.147	0.168	0.173
[1], arabinose 294012 nM	0.225	0.167	0.17	0.162	0.167	0.169
[1], arabinose 529221 nM	0.166	0.161	0.185	0.155	0.223	0.222
[1], arabinose 952599 nM	0.266	0.256	0.225	0.176	0.146	0.1619
[1], arabinose 1714678 nM	0.284	0.314	0.26	0.172	0.151	0.164
[1], arabinose 3086420 nM	0.241	0.355	0.248	0.235	0.173	0.158
[1], arabinose 5555556 nM	0.208	0.261	0.236	0.266	0.177	0.152
[1], arabinose 10000000 nM	0.217	0.213	0.194	0.254	0.181	0.156
[2], arabinose 15560 nM	–	–	–	–	0.123	0.0661
[2], arabinose 28008 nM	–	–	–	–	0.118	0.04837
[2], arabinose 50414 nM	–	–	–	–	0.123	0.0606
[2], arabinose 90744 nM	–	–	–	–	0.127	0.0496
[2], arabinose 163340 nM	–	–	–	–	0.111	0.0625
[2], arabinose 294012 nM	–	–	–	–	0.114	0.06
[2], arabinose 529221 nM	–	–	–	–	0.113	0.117
[2], arabinose 952599 nM	–	–	–	–	–	0.0654
[2], arabinose 1714678 nM	–	–	–	–	–	0.0483
[2], arabinose 3086420 nM	–	–	–	–	–	0.0773
[2], arabinose 5555556 nM	–	–	–	–	–	0.0675
[2], arabinose 10000000 nM	–	–	–	–	0.149	0.0863
